No constants are given. Whether binding was seen depends on the method and setting. For part of these data: In cells and extracts the contact can be indirect. Some results given as binding are weak or reduced against the parent protein; the word gives no strength. For part of these data: Sequences can lack the tags named with a protein.

Protein sequences, listed by entry. Tags and fused reporters are not part of them. Lines headed by an entry give the natural chain unless they say otherwise; changes in a name come on top. Chains listed by the source or under a name are the forms on record and can include a tag or linker. Residues count along the entry.
UniProt Q969W3: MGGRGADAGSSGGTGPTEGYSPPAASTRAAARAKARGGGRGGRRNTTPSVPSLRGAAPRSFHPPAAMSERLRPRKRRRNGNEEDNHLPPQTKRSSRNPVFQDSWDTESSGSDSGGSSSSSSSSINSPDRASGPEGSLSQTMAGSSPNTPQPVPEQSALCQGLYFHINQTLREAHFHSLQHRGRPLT
FLAG-VCF1 isoform 2 Cdel26: residues 1-160 of Q969W3
FLAG-VCF1 isoform 1 Cdel26 (Q969W3, form named): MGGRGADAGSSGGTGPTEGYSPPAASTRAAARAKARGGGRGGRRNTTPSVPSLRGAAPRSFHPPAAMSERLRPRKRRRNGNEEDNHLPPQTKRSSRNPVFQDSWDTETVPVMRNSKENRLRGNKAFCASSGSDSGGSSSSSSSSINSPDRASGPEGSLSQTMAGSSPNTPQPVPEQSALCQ
GST-VCF1 isoform 1 (Q969W3, form named): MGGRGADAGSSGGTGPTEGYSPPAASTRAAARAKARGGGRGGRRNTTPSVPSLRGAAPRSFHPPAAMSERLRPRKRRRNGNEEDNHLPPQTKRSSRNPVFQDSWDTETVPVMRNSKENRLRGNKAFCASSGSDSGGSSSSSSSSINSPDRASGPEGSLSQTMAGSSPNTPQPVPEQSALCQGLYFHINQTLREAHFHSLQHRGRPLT

Our source for the binding values is paper PMC10541173.

Test [1] concerns the target FLAG-VCF1 isoform 2 Cdel26 (human) (UniProt Q969W3). Put plainly: co-IP; anti-FLAG (M2 agarose) immunoprecipitation from lysates of HEK293T cells ectopically expressing FLAG-VCF1/2; lysis buffer 50 mM Tris-HCl pH 7.6, 150 mM NaCl, 2 mM MgCl2, 1% NP40, 10% glycerol, 1 mM DTT; overnight at 4°C; immunoblot of endogenous p97 and cofactors.
Test [2] deals with FLAG-VCF1 isoform 1 Cdel26 (human) (UniProt Q969W3). The test is described as above.
The target of test [3] is T1, FLAG-VCF2 isoform 3 (human) (UniProt Q5XKR9).
T1 sequence: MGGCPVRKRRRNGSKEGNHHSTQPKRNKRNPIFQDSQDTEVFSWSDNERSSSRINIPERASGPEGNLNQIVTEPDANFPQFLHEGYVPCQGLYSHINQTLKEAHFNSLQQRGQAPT
The description is as above.

The target of test [4] is GST-VCF1 isoform 2 (human) (UniProt Q969W3). Put plainly: pull-down; 0.76 nmole GST fusion immobilised on 10 µl glutathione sepharose beads; 0.2 nmole (monomer) p97 or 0.5 nmole His6-FAF1 (or other purified p97 cofactors) in TBS, 2 mM DTT, 1% Triton X-100; SDS-PAGE with Coomassie or 2,2,2-trichloroethanol staining, FAF1 immunoblot; both purified.
Test [5] addresses GST-VCF1 isoform 1 (human) (UniProt Q969W3). The description is as above.
Test [6] addresses p97, endogenous (human (endogenous in HEK293T)) (UniProt P55072). Description: co-IP; immunoprecipitation of endogenous p97 (control: unspecific rabbit IgG) from lysates of HEK293T cells ectopically expressing FLAG-VCF1/2 or control cells; Protein G sepharose, 4°C; immunoblot.
The target in test [7] is p97 (two-hybrid bait, BD-p97) (human) (UniProt P55072). Put plainly: two-hybrid; directed assay in yeast PJ69-4a; bait BD-p97 (pGBDU), prey AD-VCF1/2 (pGAD); growth on medium lacking uracil, leucine and histidine, 37°C, 3 d.

B1: UBXN2B, endogenous (protein, UniProt Q14CS0 1-331)
chain: MAEGGGPEPGEQERRSSGPRPPSARDLQLALAELYEDEVKCKSSKSNRPKATVFKSPRTPPQRFYSSEHEYSGLNIVRPSTGKIVNELFKEAREHGAVPLNEATRASGDDKSKSFTGGGYRLGSSFCKRSEYIYGENQLQDVQILLKLWSNGFSLDDGELRPYNEPTNAQFLESVKRGEIPLELQRLVHGGQVNLDMEDHQDQEYIKPRLRFKAFSGEGQKLGSLTPEIVSTPSSPEEEDKSILNAVVLIDDSVPTTKIQIRLADGSRLIQRFNSTHRILDVRNFIVQSRPEFAALDFILVTSFPNKELTDESLTLLEADILNTVLLQQLK
Take B1: the binding entry in test [1] and in test [2] was “no binding” each time.

B2: UBXN7, endogenous (protein, UniProt O94888 1-489)
chain: MAAHGGSAASSALKGLIQQFTTITGASESVGKHMLEACNNNLEMAVTMFLDGGGIAEEPSTSSASVSTVRPHTEEEVRAPIPQKQEILVEPEPLFGAPKRRRPARSIFDGFRDFQTETIRQEQELRNGGAIDKKLTTLADLFRPPIDLMHKGSFETAKECGQMQNKWLMINIQNVQDFACQCLNRDVWSNEAVKNIIREHFIFWQVYHDSEEGQRYIQFYKLGDFPYVSILDPRTGQKLVEWHQLDVSSFLDQVTGFLGEHGQLDGLSSSPPKKCARSESLIDASEDSQLEAAIRASLQETHFDSTQTKQDSRSDEESESELFSGSEEFISVCGSDEEEEVENLAKSRKSPHKDLGHRKEENRRPLTEPPVRTDPGTATNHQGLPAVDSEILEMPPEKADGVVEGIDVNGPKAQLMLRYPDGKREQITLPEQAKLLALVKHVQSKGYPNERFELLTNFPRRKLSHLDYDITLQEAGLCPQETVFVQERN
With B2, in test [3], the binding result is recorded as “binds”.

B3: His6-UBXN7 (protein, UniProt O94888 1-489)
chain: B2 chain
Regarding B3, the binding entry in test [4] and in test [5] was “no binding” in each case.

B4: p47, endogenous (protein, UniProt Q9UNZ2 1-370)
chain: MAAERQEALREFVAVTGAEEDRARFFLESAGWDLQIALASFYEDGGDEDIVTISQATPSSVSRGTAPSDNRVTSFRDLIHDQDEDEEEEEGQRFYAGGSERSGQQIVGPPRKKSPNELVDDLFKGAKEHGAVAVERVTKSPGETSKPRPFAGGGYRLGAAPEEESAYVAGEKRQHSSQDVHVVLKLWKSGFSLDNGELRSYQDPSNAQFLESIRRGEVPAELRRLAHGGQVNLDMEDHRDEDFVKPKGAFKAFTGEGQKLGSTAPQVLSTSSPAQQAENEAKASSSILIDESEPTTNIQIRLADGGRLVQKFNHSHRISDIRLFIVDARPAMAATSFILMTTFPNKELADESQTLKEANLLNAVIVQRLT
On to B4, for which, in test [6], the binding entry was “binds”.

B5: His6-p47 (protein, UniProt Q9UNZ2 1-370)
chain: B4 chain
Turning to B5, the binding result in test [4] and in test [5] was “no binding” throughout.

B6: VCF2 isoform 3 (two-hybrid prey, AD fusion) (protein, UniProt Q5XKR9-3 1-116)
chain: T1 sequence
Regarding B6, in test [7], the binding result is recorded as “binds”.
